# From the supplement of paper PMC12217912
# The other results are listed elsewhere or left out. The full chains were built here from the parent and the listed change. Values near 0.05 are background.
# B1: TEV protease; numbered along this chain (parent)
# chain: MGESLFKGPRDYNPISSSICHLTNESDGHTTSLYGIGFGPFIITNKHLFRRNNGTLVVQSLHGVFKVKDTTTLQQHLVDGRDMIIIRMPKDFPPFPQKLKFREPQREERICLVTTNFQTKSMSSMVSDTSCTFPSGDGIFWKHWIQTKDGQCGSPLVSTRDGFIVGIHSASNFTNTNNYFTSVPKNFMELLTNQEAQQWVSGWRLNADSVLWGGHKVFMVKPEEPFQPVKEATQL
# Variants of: B1
# Test: raw area under fraction-flipped curve 0-4 h after induction (AUC4h, not background-subtracted), DNA-recorder readout of cleavage of the substrate (dimensionless); higher = more cleavage of the substrate by the protease variant
# Conditions: temperature: 34 °C; time window: 0-4 h after rhamnose induction
# Experimental: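 In vivo DNA recorder in E. coli TOP10(DE3) ΔrhaA at 34 °C. Each TEVp single-site mutant (parent TEVp 0) is paired with a single-site variant of the 7-mer TEVs (canonical ENLYFQ|S). The substrate sits between flexible linkers in a Bxb1-sfGFP-TEVs-SsrA fusion, so cleavage stabilises Bxb1 and speeds flipping of a recombination array, read by NGS. The value is the raw area under the fraction-flipped curve over 0-4 h after rhamnose induction (AUC4h), with ≥20 reads per time point. It is not background-subtracted; inactive controls average about 0.047.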
# 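Further: Bxb1 expression induced with 0.2% (w/v) L-rhamnose at OD600 near 0.5, cultures sampled hourly, flipped fraction per protease–substrate barcode pair counted by paired-end Illumina sequencing.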
variant,measurement,value
S123I,area with substrate EALYFQS,0.0897
same,area with substrate ECLYFQS,0.0755
same,area with substrate EDLYFQS,0.107
same,area with substrate EGLYFQS,0.0883
same,area with substrate EHLYFQS,0.0454
same,area with substrate EILYFQS,0.0946
same,area with substrate EKLYFQS,0.106
same,area with substrate EMLYFQS,0.0864
same,area with substrate EPLYFQS,0.136
same,area with substrate EQLYFQS,0.104
same,area with substrate ERLYFQS,0.0923
same,area with substrate ESLYFQS,0.111
same,area with substrate ETLYFQS,0.181
same,area with substrate EVLYFQS,0.0863
same,area with substrate EWLYFQS,0.0764
S124P,area with substrate EALYFQS,0.167
same,area with substrate ECLYFQS,0.111
same,area with substrate EDLYFQS,0.138
same,area with substrate EELYFQS,0.107
same,area with substrate EGLYFQS,0.0838
same,area with substrate EILYFQS,0.103
same,area with substrate EKLYFQS,0.0899
same,area with substrate EPLYFQS,0.0959
same,area with substrate EQLYFQS,0.113
same,area with substrate ERLYFQS,0.114
same,area with substrate ETLYFQS,0.0927
S124R,area with substrate EALYFQS,0.133
same,area with substrate ECLYFQS,0.11
same,area with substrate EDLYFQS,0.118
same,area with substrate EELYFQS,0.118
same,area with substrate EFLYFQS,0.108
same,area with substrate EGLYFQS,0.0954
same,area with substrate EHLYFQS,0.124
same,area with substrate EILYFQS,0.0966
same,area with substrate ELLYFQS,0.103
same,area with substrate EQLYFQS,0.14
same,area with substrate ERLYFQS,0.115
same,area with substrate ESLYFQS,0.117
same,area with substrate ETLYFQS,0.104
same,area with substrate EVLYFQS,0.0956
same,area with substrate EWLYFQS,0.123
S124V,area with substrate EALYFQS,0.112
same,area with substrate ECLYFQS,0.0622
same,area with substrate EDLYFQS,0.0981
same,area with substrate EELYFQS,0.132
same,area with substrate EGLYFQS,0.0925
same,area with substrate EHLYFQS,0.0966
same,area with substrate EILYFQS,0.0557
same,area with substrate EKLYFQS,0.0943
same,area with substrate ELLYFQS,0.0892
same,area with substrate EMLYFQS,0.11
same,area with substrate EPLYFQS,0.111
same,area with substrate EQLYFQS,0.0968
same,area with substrate ESLYFQS,0.0967
same,area with substrate ETLYFQS,0.105
same,area with substrate EVLYFQS,0.0763
same,area with substrate EWLYFQS,0.122
same,area with substrate EYLYFQS,0.0955
V126A,area with substrate EALYFQS,0.113
same,area with substrate ECLYFQS,0.0919
same,area with substrate EDLYFQS,0.152
same,area with substrate EELYFQS,0.113
same,area with substrate EGLYFQS,0.0952
same,area with substrate EHLYFQS,0.069
same,area with substrate EILYFQS,0.1
same,area with substrate EKLYFQS,0.103
same,area with substrate EMLYFQS,0.12
same,area with substrate EPLYFQS,0.131
same,area with substrate EQLYFQS,0.125
same,area with substrate ERLYFQS,0.112
same,area with substrate ESLYFQS,0.106
same,area with substrate ETLYFQS,0.166
same,area with substrate EVLYFQS,0.0941
V126Y,area with substrate EALYFQS,0.114
same,area with substrate ECLYFQS,0.105
same,area with substrate EDLYFQS,0.11
same,area with substrate EFLYFQS,0.0869
same,area with substrate EGLYFQS,0.112
same,area with substrate EILYFQS,0.0866
same,area with substrate ELLYFQS,0.0887
same,area with substrate EMLYFQS,0.124
same,area with substrate EPLYFQS,0.101
same,area with substrate EQLYFQS,0.128
same,area with substrate ERLYFQS,0.11
same,area with substrate ESLYFQS,0.0984
same,area with substrate EVLYFQS,0.0905
same,area with substrate EWLYFQS,0.0802
S127E,area with substrate EALYFQS,0.0794
same,area with substrate ECLYFQS,0.111
same,area with substrate EDLYFQS,0.124
same,area with substrate EGLYFQS,0.0871
same,area with substrate EHLYFQS,0.0915
same,area with substrate EILYFQS,0.0951
same,area with substrate EKLYFQS,0.115
same,area with substrate ELLYFQS,0.0688
same,area with substrate EMLYFQS,0.101
same,area with substrate EPLYFQS,0.105
same,area with substrate EQLYFQS,0.109
same,area with substrate ERLYFQS,0.0874
same,area with substrate ESLYFQS,0.0933
same,area with substrate EVLYFQS,0.0956
same,area with substrate EYLYFQS,0.0838
S127G,area with substrate EALYFQS,0.135
same,area with substrate ECLYFQS,0.102
same,area with substrate EDLYFQS,0.128
same,area with substrate EELYFQS,0.132
same,area with substrate EGLYFQS,0.108
same,area with substrate EHLYFQS,0.0063
same,area with substrate EILYFQS,0.0749
same,area with substrate EKLYFQS,0.132
same,area with substrate ELLYFQS,0.0935
same,area with substrate EMLYFQS,0.138
same,area with substrate EPLYFQS,0.13
same,area with substrate EQLYFQS,0.126
same,area with substrate ESLYFQS,0.105
same,area with substrate EVLYFQS,0.137
same,area with substrate EWLYFQS,0.12
S127K,area with substrate EALYFQS,0.141
same,area with substrate ECLYFQS,0.115
same,area with substrate EDLYFQS,0.187
same,area with substrate EELYFQS,0.154
same,area with substrate EILYFQS,0.0953
same,area with substrate EKLYFQS,0.134
same,area with substrate ELLYFQS,0.0909
same,area with substrate EMLYFQS,0.133
same,area with substrate EQLYFQS,0.164
same,area with substrate ESLYFQS,0.183
same,area with substrate EVLYFQS,0.0939
S130Y,area with substrate EALYFQS,0.102
same,area with substrate ECLYFQS,0.0896
same,area with substrate EDLYFQS,0.102
same,area with substrate EELYFQS,0.0845
same,area with substrate EFLYFQS,0.0732
same,area with substrate EILYFQS,0.0829
same,area with substrate ELLYFQS,0.091
same,area with substrate EMLYFQS,0.106
same,area with substrate EQLYFQS,0.126
same,area with substrate ERLYFQS,0.0855
same,area with substrate ESLYFQS,0.0927
same,area with substrate ETLYFQS,0.079
same,area with substrate EVLYFQS,0.0606
T132A,area with substrate EALYFQS,0.0835
same,area with substrate ECLYFQS,0.109
same,area with substrate EDLYFQS,0.12
same,area with substrate EELYFQS,0.188
same,area with substrate EGLYFQS,0.0908
same,area with substrate EHLYFQS,0.15
same,area with substrate EILYFQS,0.0949
same,area with substrate EKLYFQS,0.127
same,area with substrate ELLYFQS,0.0931
same,area with substrate EMLYFQS,0.134
same,area with substrate EPLYFQS,0.125
same,area with substrate EQLYFQS,0.18
same,area with substrate ERLYFQS,0.0548
same,area with substrate ESLYFQS,0.106
same,area with substrate EVLYFQS,0.106
same,area with substrate EWLYFQS,0.106
T132I,area with substrate EALYFQS,0.117
same,area with substrate ECLYFQS,0.097
same,area with substrate EDLYFQS,0.153
same,area with substrate EELYFQS,0.119
same,area with substrate EFLYFQS,0.0753
same,area with substrate EHLYFQS,0.102
same,area with substrate EILYFQS,0.0963
same,area with substrate EKLYFQS,0.11
same,area with substrate ELLYFQS,0.101
same,area with substrate EPLYFQS,0.109
same,area with substrate EQLYFQS,0.116
same,area with substrate ERLYFQS,0.0978
same,area with substrate ESLYFQS,0.0987
same,area with substrate EVLYFQS,0.106
same,area with substrate EWLYFQS,0.112
F133K,area with substrate EALYFQS,0.108
same,area with substrate ECLYFQS,0.078
same,area with substrate EDLYFQS,0.117
same,area with substrate EELYFQS,0.128
same,area with substrate EFLYFQS,0.104
same,area with substrate EGLYFQS,0.0045
same,area with substrate EILYFQS,0.0993
same,area with substrate EKLYFQS,0.11
same,area with substrate EMLYFQS,0.128
same,area with substrate EQLYFQS,0.119
same,area with substrate ERLYFQS,0.117
same,area with substrate ESLYFQS,0.12
same,area with substrate EVLYFQS,0.0799
same,area with substrate EWLYFQS,0.133
